Measured values published in PMC7719147.
These are yes or no findings as the source states them, for the method shown. In cells and extracts the contact can be indirect. Some entries that bind do so weakly or less than the wild type. Sequences can lack the tags named with a protein.

Chains of the proteins cited; added tags and fusions are not shown.
UniProt Q7Z434: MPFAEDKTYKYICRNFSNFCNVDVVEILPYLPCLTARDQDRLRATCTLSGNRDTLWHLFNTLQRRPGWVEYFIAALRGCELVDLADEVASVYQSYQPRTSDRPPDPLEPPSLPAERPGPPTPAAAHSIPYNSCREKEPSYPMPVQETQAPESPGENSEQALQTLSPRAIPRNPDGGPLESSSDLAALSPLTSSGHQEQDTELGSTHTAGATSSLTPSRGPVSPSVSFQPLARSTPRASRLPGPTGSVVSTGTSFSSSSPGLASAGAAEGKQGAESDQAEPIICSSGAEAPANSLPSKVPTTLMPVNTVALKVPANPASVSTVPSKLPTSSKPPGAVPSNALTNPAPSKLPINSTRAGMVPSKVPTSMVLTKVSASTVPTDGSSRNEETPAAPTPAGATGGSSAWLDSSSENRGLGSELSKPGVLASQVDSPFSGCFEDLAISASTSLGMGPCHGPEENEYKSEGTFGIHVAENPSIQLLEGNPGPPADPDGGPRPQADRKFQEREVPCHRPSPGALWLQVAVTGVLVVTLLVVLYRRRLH

T1: TRIM35-V5 (tripartite motif containing 35, V5-tagged) (human) (UniProt Q9UPQ4)
T1 sequence: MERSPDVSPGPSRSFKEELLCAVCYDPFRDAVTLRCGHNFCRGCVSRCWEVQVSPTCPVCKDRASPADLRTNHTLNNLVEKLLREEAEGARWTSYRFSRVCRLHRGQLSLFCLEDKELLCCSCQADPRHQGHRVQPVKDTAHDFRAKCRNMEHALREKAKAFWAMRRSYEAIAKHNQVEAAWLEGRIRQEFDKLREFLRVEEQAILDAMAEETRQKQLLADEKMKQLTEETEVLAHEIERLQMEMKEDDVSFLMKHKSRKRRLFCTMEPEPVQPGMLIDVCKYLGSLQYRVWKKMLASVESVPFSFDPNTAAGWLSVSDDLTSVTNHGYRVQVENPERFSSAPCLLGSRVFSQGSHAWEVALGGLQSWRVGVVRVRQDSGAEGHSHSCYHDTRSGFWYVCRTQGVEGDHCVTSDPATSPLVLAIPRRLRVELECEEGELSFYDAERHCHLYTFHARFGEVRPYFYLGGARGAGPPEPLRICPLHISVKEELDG


Experiments:
Assay in all cases: co-IP
[1] = biological target: VISA-Myc (human (ORF amplified from HEK293T or A549 cells)) (UniProt Q7Z434)
[2] = biological target: VISA (in HEK293T cells expressing IKKε-Flag, Fig. 5J) (human (endogenous in HEK293T)) (UniProt Q7Z434)
[3] = biological target: T1, TRIM35-V5 (tripartite motif containing 35, V5-tagged) (human)

| Binder | binding [1] | binding [2] | binding [3] |
| --- | --- | --- | --- |
| IKKε-Flag (IkB kinase-ε, Flag-tagged) (protein, UniProt Q14164 1-716) MQSTANYLWHTDDLLGQGATASVYKARNKKSGELVAVKVFNTTSYLRPREVQVREFEVLRKLNHQNIVKLFAVEETGGSRQKVLVMEYCSSGSLLSVLESPENAFGLPEDEFLVVLRCVVAGMNHLRENGIVHRDIKPGNIMRLVGEEGQSIYKLTDFGAARELDDDEKFVSVYGTEEYLHPDMYERAVLRKPQQKAFGVTVDLWSIGVTLYHAATGSLPFIPFGGPRRNKEIMYRITTEKPAGAIAGAQRRENGPLEWSYTLPITCQLSLGLQSQLVPILANILEVEQAKCWGFDQFFAETSDILQRVVVHVFSLSQAVLHHIYIHAHNTIAIFQEAVHKQTSVAPRHQEYLFEGHLCVLEPSVSAQHIAHTTASSPLTLFSTAIPKGLAFRDPALDVPKFVPKVDLQADYNTAKGVLGAGYQALRLARALLDGQELMFRGLHWVMEVLQATCRRTLEVARTSLLYLSSSLGTERFSSVAGTPEIQELKAAAELRSRLRTLAEVLSRCSQNITETQESLSSLNRELVKSRDQVHEDRSIQQIQCCLDKMNFIYKQFKKSRMRPGLGYNEEQIHKLDKVNFSHLAKRLLQVFQEECVQKYQASLVTHGKRMRVVHETRNHLRLVGCSVAACNTEAQGVQESLSKLLEELSHQLLQDRAKGAQASPPPIAPYPSPTRKDLLLHMQELCEGMKLLASDLLDNNRIIERLNRVPAPPDV | binds | binds | – |
| TBK1-Flag (TANK-binding kinase 1, Flag-tagged) (protein, UniProt Q9UHD2 1-729) MQSTSNHLWLLSDILGQGATANVFRGRHKKTGDLFAIKVFNNISFLRPVDVQMREFEVLKKLNHKNIVKLFAIEEETTTRHKVLIMEFCPCGSLYTVLEEPSNAYGLPESEFLIVLRDVVGGMNHLRENGIVHRDIKPGNIMRVIGEDGQSVYKLTDFGAARELEDDEQFVSLYGTEEYLHPDMYERAVLRKDHQKKYGATVDLWSIGVTFYHAATGSLPFRPFEGPRRNKEVMYKIITGKPSGAISGVQKAENGPIDWSGDMPVSCSLSRGLQVLLTPVLANILEADQEKCWGFDQFFAETSDILHRMVIHVFSLQQMTAHKIYIHSYNTATIFHELVYKQTKIISSNQELIYEGRRLVLEPGRLAQHFPKTTEENPIFVVSREPLNTIGLIYEKISLPKVHPRYDLDGDASMAKAITGVVCYACRIASTLLLYQELMRKGIRWLIELIKDDYNETVHKKTEVVITLDFCIRNIEKTVKVYEKLMKINLEAAELGEISDIHTKLLRLSSSQGTIETSLQDIDSRLSPGGSLADAWAHQEGTHPKDRNVEKLQVLLNCMTEIYYQFKKDKAERRLAYNEEQIHKFDKQKLYYHATKAMTHFTDECVKKYEAFLNKSEEWIRKMLHLRKQLLSLTNQCFDIEEEVSKYQEYTNELQETLPQKMFTASSGIKHTMTPIYPSSNTLVEMTLGMKKLKEEMEGVVKELAENNHILERFGSLTMDGGLRNVDCL | – | – | no binding |
| IRF3-Flag (interferon regulatory factor 3, Flag-tagged) (protein, UniProt Q14653 1-427) MGTPKPRILPWLVSQLDLGQLEGVAWVNKSRTRFRIPWKHGLRQDAQQEDFGIFQAWAEATGAYVPGRDKPDLPTWKRNFRSALNRKEGLRLAEDRSKDPHDPHKIYEFVNSGVGDFSQPDTSPDTNGGGSTSDTQEDILDELLGNMVLAPLPDPGPPSLAVAPEPCPQPLRSPSLDNPTPFPNLGPSENPLKRLLVPGEEWEFEVTAFYRGRQVFQQTISCPEGLRLVGSEVGDRTLPGWPVTLPDPGMSLTDRGVMSYVRHVLSCLGGGLALWRAGQWLWAQRLGHCHTYWAVSEELLPNSGHGPDGEVPKDKEGGVFDLGPFIVDLITFTEGSGRSPRYALWFCVGESWPQDQPWTKRLVMVKVVPTCLRALVEMARVGGASSLENTVDLHISNSHPLSLTSDQYKAYLQDLVEGMDFQGPGES | – | – | no binding |
